Laboratory results as given in paper PMC4336329 (PLoS ONE, 2015).
The campaign covered roughly 310,000 compounds. About 14,000 (4.5%) showed an effect of 50% or more. The effect is printed as a negative number. The list shows a part of the results.

What follows are compounds tested against human ether-à-go-go-related gene (hERG) potassium channel (human, UniProt Q12809) (assay: primary screen, population patch clamp on CHO cells stably expressing hERG).
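Also: peak tail current of the secondary pulse compared with the same well before compound.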

human ether-à-go-go-related gene (hERG) potassium channel, sequence (Q12809 whole entry, looked up): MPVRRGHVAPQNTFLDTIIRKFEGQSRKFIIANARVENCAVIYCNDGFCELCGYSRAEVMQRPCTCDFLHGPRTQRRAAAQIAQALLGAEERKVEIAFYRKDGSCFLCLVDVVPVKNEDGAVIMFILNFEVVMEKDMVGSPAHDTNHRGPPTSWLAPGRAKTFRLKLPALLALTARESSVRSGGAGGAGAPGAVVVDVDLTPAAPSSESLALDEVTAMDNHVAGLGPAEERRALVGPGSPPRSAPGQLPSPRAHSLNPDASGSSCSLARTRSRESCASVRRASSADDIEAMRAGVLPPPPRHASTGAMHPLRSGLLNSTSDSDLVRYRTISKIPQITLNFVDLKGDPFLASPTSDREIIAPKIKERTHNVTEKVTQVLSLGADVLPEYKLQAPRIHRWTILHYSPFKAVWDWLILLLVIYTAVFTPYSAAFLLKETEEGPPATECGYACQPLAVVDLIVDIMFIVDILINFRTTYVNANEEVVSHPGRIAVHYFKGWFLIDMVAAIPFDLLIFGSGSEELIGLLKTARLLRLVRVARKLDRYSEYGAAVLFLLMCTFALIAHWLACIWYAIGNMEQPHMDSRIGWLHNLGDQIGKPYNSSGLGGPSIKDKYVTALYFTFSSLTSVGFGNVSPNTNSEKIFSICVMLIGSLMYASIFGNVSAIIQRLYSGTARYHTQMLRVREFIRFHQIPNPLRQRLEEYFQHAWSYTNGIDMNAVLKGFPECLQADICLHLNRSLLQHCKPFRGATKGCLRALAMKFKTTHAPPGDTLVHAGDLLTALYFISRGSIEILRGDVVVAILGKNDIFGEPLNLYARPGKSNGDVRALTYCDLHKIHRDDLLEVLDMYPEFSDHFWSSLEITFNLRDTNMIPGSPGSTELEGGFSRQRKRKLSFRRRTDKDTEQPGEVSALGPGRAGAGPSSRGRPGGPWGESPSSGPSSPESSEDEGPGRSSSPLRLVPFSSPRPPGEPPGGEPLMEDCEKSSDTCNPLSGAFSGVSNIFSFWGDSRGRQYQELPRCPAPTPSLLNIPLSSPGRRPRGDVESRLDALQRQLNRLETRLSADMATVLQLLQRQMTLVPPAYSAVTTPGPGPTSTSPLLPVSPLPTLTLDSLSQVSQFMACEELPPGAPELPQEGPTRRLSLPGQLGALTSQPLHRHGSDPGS

| SMILES | hERG current change (%, negative = inhibition) at 10uM |
| --- | --- |
| Cc1nn(Cc2ccccc2)c(Cl)c1C(=O)NC(C)(C)C | -0.618% |
| COc1ccc(-c2nc3ccccc3c(=O)n2O)cc1 | 25.5% |
| CCc1nnc(NS(=O)(=O)c2ccc(NC(=S)NC(=O)/C=C/c3ccc(OC)cc3)cc2)s1 | 13.2% |
| CS(=O)(=O)N1CCCC(C(=O)NCCCN2CCC(Cc3ccccc3)CC2)C1 (stereo not shown) | -33.5% |
| COc1ccc(CNS(=O)(=O)c2ccc(OC)cc2)cc1 | 4.38% |
| CC(CC(=O)NCC1CCCO1)c1ccccc1 (stereo not shown) | 18.5% |
| COCc1nnc(NC(=O)CC(C)C)s1 | 4.33% |
| CCOc1cccc(-c2nnc3sc(COc4ccc(OC)cc4)nn23)c1 | -9.55% |
| Cc1ccc(CC(=O)OC(C)C(=O)NC2CCCCC2C)cc1C (stereo not shown) | 8.11% |
| Cc1ccc(NS(=O)(=O)c2c(C)[nH]c(C)c2C(=O)N2CCCCC2)cc1C | -5.1% |
| CC(C)(C)OC(=O)[C@H](Cc1ccccc1)NC(=O)c1[nH]cnc1C(=O)Nc1cccc(Cl)c1 | 11.6% |
| CC(C)CNC(=O)c1ccccc1NC(=O)c1ccccc1N(C)S(=O)(=O)c1ccccc1 | -12.2% |
| CCOC(=O)C1(Cc2ccccc2)CCN(Cc2ccc3c(c2)OCCO3)CC1 | -33.1% |
| CCCS(=O)(=O)c1cn2cccc(N)c2c1S(=O)(=O)CCC | -7.42% |
| COc1ccc(NC(=O)C(NCC(C)C)c2ccccc2)cc1Cl (stereo not shown) | -0.652% |
| CCCCn1c(N)c(N(CC(C)C)C(=O)CCNC(=O)c2ccc(Cl)cc2)c(=O)[nH]c1=O | -6.38% |
| COc1cc(Cl)ccc1OCc1cc(C(=O)N2CCN(c3ccccn3)CC2)no1 | -20.3% |
| COc1ccc(/C=C2/S/C(=N/N=C3\CC4CCC3(C)C4(C)C)NC2=O)cc1 (stereo not shown) | 15.6% |
| Cc1nn(-c2ccccc2)c(C)c1NC(=O)COC(=O)CCc1ccccc1 | -10.2% |
| CCC(=O)Nc1ccc(C(=O)n2nc(C)cc2C)cc1 | -0.911% |
| Cc1cc(NCCCN2CCOCC2)n2nc(C)c(-c3ccccc3)c2n1 | -14.6% |
| Cc1ccc(C(=O)Nc2cccc(C(=O)N3CCN(C)CC3)c2)cc1 | -4.65% |

| SMILES | hERG current change (%, negative = inhibition) at 10uM |
| --- | --- |
| O=C(OC(C(=O)NCc1cccs1)c1ccccc1F)c1ccco1 (stereo not shown) | 20.5% |
| CCOc1ccc(NC(=O)CN(C)C(=O)CCCc2c[nH]c3ccccc23)cc1OCC | -3.25% |
| O=C(O)c1ccc(CSc2nnnn2-c2ccc(F)cc2)cc1 | -9.84% |
| CCN(CC(=O)Nc1cccc(S(=O)(=O)N(C)c2ccccc2)c1)Cc1cccs1 | -29.1% |
| Cc1cccc2[nH]c3c(N4CC=C(c5ccc(F)cc5)CC4)ncnc3c12 | 3.01% |
| COC(=O)c1cc(COc2ccc3oc(C)c(C(=O)OC(C)C)c3c2)c(C)o1 | 15.6% |
| O=C(Nc1ccc(N2CCN(C(=O)c3ccccc3)CC2)c(Cl)c1)c1ccc(Br)o1 | -58.2% |
| Cc1c(Br)c([N+](=O)[O-])nn1CC(=O)Nc1cccc2nonc12 | 28.3% |
| CN1CCN(c2nc3c(c(=O)n(C)c(=O)n3C)n2CC(=O)C23CC4CC(CC(C4)C2)C3)CC1 | -20.8% |
| COc1ccc(C(=O)N2C(=O)c3ccc(N)cc3C2=O)cc1 | 3.41% |
| CCCCCCCCCCNC(=O)C(=O)Nc1ccccn1 | 17.9% |
| COc1ccc(N2CC(O)=C(c3nc(-c4ccc(Br)cc4)cs3)C2=N)cc1 | 33.3% |
| O=C(NCCc1nc2ccccc2[nH]1)/C(=C/c1ccc2c(c1)OCO2)NC(=O)c1ccccc1Cl | -80.6% |
| CCC1(CC)C(=O)NC(=O)NC1=NCCc1c[nH]c2ccccc12 | 19.1% |
| Cc1ccccc1Nc1c(-c2ccncc2)nc2ccc(Cl)cn12 | -6.83% |
| c1ccc2c(c1)CC1(CCCC1)n1nnnc1-2 | -19.4% |
| CCOc1ccc(C2CC(=O)NC3=C2C(=O)CCC3)cc1Cl (stereo not shown) | -19.3% |
| CC(NC(=O)C1CC1)C(c1cccs1)N1CCOCC1 (stereo not shown) | -0.309% |
| COc1ccc([C@@H]2Sc3ccccc3NC(=O)[C@@H]2O)cc1 | 2.98% |
| Cc1cc(C(=O)COC(=O)C2CC2)c(C)n1-c1ccc(F)cc1 | 1.28% |
| COc1ccc(C(C[N+](=O)[O-])c2c(C)cc3ccccn23)c(OC)c1 (stereo not shown) | 26.6% |
| O=C(O)CCC(NC(=S)Nc1ccccc1)C(=O)O (stereo not shown) | 12.8% |

| SMILES | hERG current change (%, negative = inhibition) at 10uM |
| --- | --- |
| CCn1nc(C(=O)OCC(=O)N(CCC#N)c2ccccc2)c2ccccc2c1=O | -30.2% |
| CC1CCCN(CCOCCSc2ccccc2)C1.O=C(O)C(=O)O (stereo not shown) | -34.5% |
| CCCCOc1cccc(C(=O)Nc2ccc(NC(=O)c3cccs3)cc2)c1 | 21.3% |
| CC(=O)NCCc1nc2cc(NC(=O)COc3ccc(C)cc3)ccc2n1C | 14.2% |
| O=C(O)CCC(=O)OC1CC2CCC1C2 (stereo not shown) | 1.25% |
| Cc1ccc(C)c2c1[nH]c1ccc([N+](=O)[O-])cc12 | 10.4% |
| COc1ccc(NC(=O)C=C(C)C)cc1Cl | -1.62% |
| Cc1ccc(C(=O)O/N=C(\N)Cc2cccs2)cc1[N+](=O)[O-] | 1.11% |
| CCCCn1c(O)c(C=NCCCN(CC)CC)c(=O)[nH]c1=O | -8.91% |
| N#CC1=C(SCC(=O)NC23CC4CC(CC(C4)C2)C3)NC(=O)C(C#N)C12CCCCC2 (stereo not shown) | 1.3% |
| Cc1ccc([N+](=O)[O-])cc1S(=O)(=O)Nc1ccc(O)c(Sc2ncn[nH]2)c1 | 14.7% |
| Cc1cc(C)cc(NS(=O)(=O)c2ccc3c(c2)c(=O)n(C)c(=O)n3C)c1 | -17.3% |
| Cc1ccc(C(=O)Nc2c3c(nn2-c2ccccc2)CS(=O)(=O)C3)cc1C | 5.15% |
| CC(=O)c1cccc(NC(=O)N2CCCC2C(=O)NCCC(C)C)c1 (stereo not shown) | 11.6% |
| O=C(Nc1nc(-c2cc(F)ccc2F)cs1)C1=COCCO1 | -1.01% |
| O=C(NCc1ccccc1Br)c1ccncc1 | 29.5% |
| O=C(Cc1ccc([N+](=O)[O-])cc1)NCC1CCCO1 (stereo not shown) | 1.56% |
| CCC(C)Sc1nc2c(c(=O)[nH]c(=O)n2C)n1CC(O)COc1cccc2ccccc12 (stereo not shown) | 12.7% |
| c1csc(-c2nc3nc4ccccc4nc3n2Cc2ccc3c(c2)OCO3)c1 | 13.8% |
| Cc1cc(C=C2C(=O)NC(=O)NC2=O)c(C)n1-c1ccc2c(c1)OCO2 | 2.97% |
| Cc1ccc(OCc2nnc(SCC(=O)CC(=O)Nc3ccccc3)o2)cc1 | 10.2% |
| COCCCNC(=O)c1cc2cc3cc(OC)ccc3nc2o1 | -12.9% |

| SMILES | hERG current change (%, negative = inhibition) at 10uM |
| --- | --- |
| CCS(=O)(=O)n1nc(-c2ccccc2)cc1N | 7.55% |
| CN(/N=C/c1cc([N+](=O)[O-])ccc1O)c1ccccc1 | 15.9% |
| COc1ccc(-n2c(-c3ccco3)n[nH]c2=S)cc1 | 14.3% |
| CC(N=C1NS(=O)(=O)c2ccccc21)C(=O)NCCCc1ccccc1 (stereo not shown) | 15.9% |
| Cc1nc(NC(=O)c2ccncc2)sc1C(=O)N(C)C | 25.3% |
| CCN(c1ccc2c(c1)OCO2)S(=O)(=O)c1cc(Br)cc2c1N(C(C)=O)CC2 | -11.1% |
| CCNC(=O)n1nccc1C(C)Oc1cccc(C(F)(F)F)c1 (stereo not shown) | -21.5% |
| CC1(C)CC(=O)c2cnc(NC3CC3)nc2C1 | 6.22% |
| CCOc1ccc(NS(=O)(=O)c2ccc(Cl)c(C(=O)N(C)Cc3cccnc3)c2)cc1 | -25.9% |
| CC(C)CC(=O)NS(=O)(=O)c1ccc(NC(=O)c2ccco2)cc1 | 25.8% |
| NS(=O)(=O)c1cccc2c1c([N+](=O)[O-])cc1nc([O-])c([O-])nc12.[Na+] | 29.6% |
| CCCOc1ncnc2c1[nH]c1ccc(C)cc12 | 16.4% |
| C/C(=N\NC(=O)c1ccccc1)c1ccccc1Br | 31.6% |
| COC(=O)c1cccc(NC(=O)Cc2coc3cc(OC)ccc23)c1 | 1.64% |
| CC(=O)N1CCc2cc(S(=O)(=O)NCCC(=O)Nc3cccc(C)c3)ccc21 | -2.86% |
| NS(=O)(=O)c1cccc(NC(=O)COC(=O)C2CCN(S(=O)(=O)c3cccs3)CC2)c1 | -1.16% |
| O=C(O)Cc1csc(NC(=O)CSc2cccc(C(=O)O)n2)n1 | 16.9% |
| COc1cc(C(NC=O)C(=O)Nc2c(C)cccc2C)ccc1O (stereo not shown) | 15.1% |
| COc1ccccc1NC(=O)c1ccc(NC(=O)C2COc3ccccc3O2)cc1 (stereo not shown) | -0.129% |
| CC1=C(C(=O)OCc2ccc3c(c2)OCO3)C(c2cccc([N+](=O)[O-])c2)NC(=O)N1 (stereo not shown) | 15.9% |
| O=C(Nc1cccnc1Cl)c1ccc(Cl)c([N+](=O)[O-])c1 | -3.09% |
| O=C(c1ccccc1)N1C(=O)C(c2ccccc2)Oc2ccccc21 (stereo not shown) | 9.32% |
